# In the supplement of paper PMC8728848:
# This is one part of the list.
# B1: PX14343H-pdi-506-26-506 (Parabacteroides distasonis) (protein)
# chain: QPTGTMTTDSKLTSKESALALTNSAYLKNTVFNKMTPGWGCNTILLLEYMTGKATSENSQSNYKDFQDLLVSDRSLYIEDWWQDCYAGIANCNLALQKLGEFENLDASLVNGYMAEVKFMRALYYFYLVRIFGDVPKITTVQSELGELQVSRAPVKEIYDEIIIPDLLEAEQSDLAFSDHTGRVSMGAVKALLADVYLTYAGYPLQGGKSYYAESAKRSLEVIKSNEYTLFTDYESLRLPSQNNKGEFIYQVQFSLNKRHNESVRIFLPSRSGISAYDLEYGSLIPTKEFVESFEKGDKRTEEKQYFFTNYKGHPSKFSPGAAELEFMDLNGYYIYKFFDQVAVDNTAKSDLNWSVYRYTDVLLMYAEAQVNADGTPNQQSIDIVNQIRGRAGLAPFKQTNASAFLEEVWDQRYFDLCYENKMWFDMLRTRKIRDDKSGEYVDFIGYKTNWGKVYTETQLLFPIPLSERQANPNLTQNQGY
# What was measured:
# Experiment in all cases: glycan array binding signal (z-score within array); higher = stronger binding
# Details in all cases: glycan notation: IUPAC condensed, linker removed
# GlcNAc(b1-3)Gal(b1-4)Glc = target: GlcNAc(b1-3)Gal(b1-4)Glc
# Outline: (§1)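 The binding signal is a Z-score computed within each array and averaged over linkers. Arrays of the same protein sequence at different concentrations or buffers were also averaged together. Data originate from 3228 arrays in the Consortium for Functional Glycomics database, kept only where the protein sequence was available.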
# [1] = target: GlcNAc(b1-3)Gal(b1-4)GlcNAc
# Outline: as §1
# [2] = target: GlcNAc(b1-3)Gal(b1-4)GlcNAc(b1-2)Man(a1-3)[GlcNAc(b1-3)Gal(b1-4)GlcNAc(b1-2)Man(a1-6)]Man(b1-4)GlcNAc(b1-4)GlcNAc
# Outline: as §1
# [3] = target: GlcNAc(b1-3)Gal(b1-4)GlcNAc(b1-2)Man(a1-3)[GlcNAc(b1-3)Gal(b1-4)GlcNAc(b1-2)Man(a1-6)]Man(b1-4)GlcNAc(b1-4)[Fuc(a1-6)]GlcNAc
# Outline: as §1
# [4] = target: GlcNAc(b1-3)Gal(b1-4)GlcNAc(b1-2)[GlcNAc(b1-3)Gal(b1-4)GlcNAc(b1-6)]Man(a1-6)[GlcNAc(b1-3)Gal(b1-4)GlcNAc(b1-2)Man(a1-3)]Man(b1-4)GlcNAc(b1-4)GlcNAc
# Outline: as §1
# [5] = target: GlcNAc(b1-3)Gal(b1-4)GlcNAc(b1-3)Gal(b1-4)GlcNAc
# Outline: as §1
# [6] = target: GlcNAc(b1-3)Gal(b1-4)GlcNAc(b1-3)Gal(b1-4)GlcNAc(b1-2)Man(a1-3)[GlcNAc(b1-3)Gal(b1-4)GlcNAc(b1-3)Gal(b1-4)GlcNAc(b1-2)Man(a1-6)]Man(b1-4)GlcNAc(b1-4)GlcNAc
# Outline: as §1
# [7] = target: GlcNAc(b1-3)Gal(b1-4)GlcNAc(b1-3)Gal(b1-4)GlcNAc(b1-2)Man(a1-3)[GlcNAc(b1-3)Gal(b1-4)GlcNAc(b1-3)Gal(b1-4)GlcNAc(b1-2)Man(a1-6)]Man(b1-4)GlcNAc(b1-4)[Fuc(a1-6)]GlcNAc
# Outline: as §1
# [8] = target: GlcNAc(b1-3)Gal(b1-4)GlcNAc(b1-3)Gal(b1-4)GlcNAc(b1-2)[GlcNAc(b1-3)Gal(b1-4)GlcNAc(b1-3)Gal(b1-4)GlcNAc(b1-6)]Man(a1-6)[GlcNAc(b1-3)Gal(b1-4)GlcNAc(b1-3)Gal(b1-4)GlcNAc(b1-2)Man(a1-3)]Man(b1-4)GlcNAc(b1-4)[Fuc(a1-6)]GlcNAc
# Outline: as §1
# [9] = target: GlcNAc(b1-3)Gal(b1-4)GlcNAc(b1-3)Gal(b1-4)GlcNAc(b1-3)Gal(b1-4)GlcNAc(b1-2)Man(a1-3)[GlcNAc(b1-3)Gal(b1-4)GlcNAc(b1-3)Gal(b1-4)GlcNAc(b1-3)Gal(b1-4)GlcNAc(b1-2)Man(a1-6)]Man(b1-4)GlcNAc(b1-4)GlcNAc
# Outline: as §1
# [10] = target: GlcNAc(b1-3)Gal(b1-4)GlcNAc(b1-3)Gal(b1-4)GlcNAc(b1-3)Gal(b1-4)GlcNAc(b1-2)Man(a1-3)[GlcNAc(b1-3)Gal(b1-4)GlcNAc(b1-3)Gal(b1-4)GlcNAc(b1-3)Gal(b1-4)GlcNAc(b1-2)Man(a1-6)]Man(b1-4)GlcNAc(b1-4)[Fuc(a1-6)]GlcNAc
# Outline: as §1
# [11] = target: GlcNAc(b1-3)Gal(b1-4)GlcNAc(b1-3)Gal(b1-4)GlcNAc(b1-3)Gal(b1-4)GlcNAc(b1-2)[GlcNAc(b1-3)Gal(b1-4)GlcNAc(b1-3)Gal(b1-4)GlcNAc(b1-3)Gal(b1-4)GlcNAc(b1-6)]Man(a1-6)[GlcNAc(b1-3)Gal(b1-4)GlcNAc(b1-3)Gal(b1-4)GlcNAc(b1-3)Gal(b1-4)GlcNAc(b1-2)Man(a1-3)]Man(b1-4)GlcNAc(b1-4)[Fuc(a1-6)]GlcNAc
# Outline: as §1
# [12] = target: GlcNAc(b1-3)Gal(b1-4)GlcNAc(b1-3)Gal(b1-4)GlcNAc(b1-3)Gal(b1-4)GlcNAc(b1-3)Gal(b1-4)GlcNAc(b1-2)Man(a1-3)[GlcNAc(b1-3)Gal(b1-4)GlcNAc(b1-3)Gal(b1-4)GlcNAc(b1-3)Gal(b1-4)GlcNAc(b1-3)Gal(b1-4)GlcNAc(b1-2)Man(a1-6)]Man(b1-4)GlcNAc(b1-4)GlcNAc
# Outline: as §1
# [13] = target: GlcNAc(b1-3)Gal(b1-4)GlcNAc(b1-3)Gal(b1-4)GlcNAc(b1-3)Gal(b1-4)GlcNAc(b1-3)Gal(b1-4)GlcNAc(b1-2)Man(a1-3)[GlcNAc(b1-3)Gal(b1-4)GlcNAc(b1-3)Gal(b1-4)GlcNAc(b1-3)Gal(b1-4)GlcNAc(b1-3)Gal(b1-4)GlcNAc(b1-2)Man(a1-6)]Man(b1-4)GlcNAc(b1-4)[Fuc(a1-6)]GlcNAc
# Outline: as §1
# [14] = target: GlcNAc(b1-3)Gal(b1-4)GlcNAc(b1-3)Gal(b1-4)GlcNAc(b1-3)Gal(b1-4)GlcNAc(b1-3)Gal(b1-4)GlcNAc(b1-2)[GlcNAc(b1-3)Gal(b1-4)GlcNAc(b1-3)Gal(b1-4)GlcNAc(b1-3)Gal(b1-4)GlcNAc(b1-3)Gal(b1-4)GlcNAc(b1-6)]Man(a1-6)[GlcNAc(b1-3)Gal(b1-4)GlcNAc(b1-3)Gal(b1-4)GlcNAc(b1-3)Gal(b1-4)GlcNAc(b1-3)Gal(b1-4)GlcNAc(b1-2)Man(a1-3)]Man(b1-4)GlcNAc(b1-4)[Fuc(a1-6)]GlcNAc
# Outline: as §1
# [15] = target: GlcNAc(b1-3)Gal(b1-4)GlcNAc(b1-3)Gal(b1-4)GlcNAc(b1-3)GalNAc
# Outline: as §1
# [16] = target: GlcNAc(b1-3)Gal(b1-4)GlcNAc(b1-3)GalNAc
# Outline: as §1
# [17] = target: GlcNAc(b1-3)Gal(b1-4)GlcNAc(b1-3)[GlcNAc(b1-3)Gal(b1-4)GlcNAc(b1-3)]GalNAc
# Outline: as §1
# [18] = target: GlcNAc(b1-3)Gal(b1-4)GlcNAc(b1-6)[Gal(b1-3)]GalNAc
# Outline: as §1
# [19] = target: GlcNAc(b1-3)Gal(b1-4)GlcNAc(b1-6)[GlcNAc(b1-3)Gal(b1-3)]GalNAc
# Outline: as §1
# [20] = target: GlcNAc(b1-3)Gal(b1-4)GlcNAc(b1-6)[GlcNAc(b1-3)]Gal(b1-4)GlcNAc
# Outline: as §1
# GlcNAc(b1-3)GalNAc = target: GlcNAc(b1-3)GalNAc
# Outline: as §1
# GlcNAc(b1-3)Man = target: GlcNAc(b1-3)Man
# Outline: as §1
# [21] = target: GlcNAc(b1-3)[GlcNAc(b1-4)][GlcNAc(b1-6)]GlcNAc
# Outline: as §1
# [22] = target: GlcNAc(b1-3)[GlcNAc(b1-6)]Gal(b1-4)GlcNAc
# Outline: as §1
# [23] = target: GlcNAc(b1-3)[GlcNAc(b1-6)]GalNAc
# Outline: as §1
# [24] = target: GlcNAc(b1-4)Gal(b1-4)GlcNAc
# Outline: as §1
# GlcNAc(b1-4)GlcNAc = target: GlcNAc(b1-4)GlcNAc
# Outline: as §1
# [25] = target: GlcNAc(b1-4)GlcNAc(b1-4)GlcNAc
# Outline: as §1
# [26] = target: GlcNAc(b1-4)GlcNAc(b1-4)GlcNAc(b1-4)GlcNAc(b1-4)GlcNAc
# Outline: as §1
# [27] = target: GlcNAc(b1-4)GlcNAc(b1-4)GlcNAc(b1-4)GlcNAc(b1-4)GlcNAc(b1-4)GlcNAc
# Outline: as §1
# [28] = target: GlcNAc(b1-4)[GlcNAc(b1-6)]GalNAc
# Outline: as §1
# [29] = target: GlcNAc(b1-6)Gal(b1-4)GlcNAc
# Outline: as §1
# GlcNAc(b1-6)GalNAc = target: GlcNAc(b1-6)GalNAc
# Outline: as §1
# [30] = target: GlcNAc6S(b1-3)Gal(b1-4)GlcNAc
# Outline: as §1
# Kdn(a2-3)Gal(b1-3)GalNAc = target: Kdn(a2-3)Gal(b1-3)GalNAc
# Outline: as §1
# Kdn(a2-3)Gal(b1-3)GlcNAc = target: Kdn(a2-3)Gal(b1-3)GlcNAc
# Outline: as §1
binder,measurement,setting,value
B1,glycan array binding signal (z-score),GlcNAc(b1-3)Gal(b1-4)Glc,-0.525
same,glycan array binding signal (z-score),[1],-0.467
same,glycan array binding signal (z-score),[2],-0.309
same,glycan array binding signal (z-score),[3],-0.069
same,glycan array binding signal (z-score),[4],0.616
same,glycan array binding signal (z-score),[5],-0.418
same,glycan array binding signal (z-score),[6],-0.068
same,glycan array binding signal (z-score),[7],0.283
same,glycan array binding signal (z-score),[8],-0.099
same,glycan array binding signal (z-score),[9],-0.249
same,glycan array binding signal (z-score),[10],0.224
same,glycan array binding signal (z-score),[11],0.039
same,glycan array binding signal (z-score),[12],-0.084
same,glycan array binding signal (z-score),[13],-0.36
same,glycan array binding signal (z-score),[14],2.61
same,glycan array binding signal (z-score),[15],-0.479
same,glycan array binding signal (z-score),[16],-0.331
same,glycan array binding signal (z-score),[17],-0.202
same,glycan array binding signal (z-score),[18],-0.197
same,glycan array binding signal (z-score),[19],-0.354
same,glycan array binding signal (z-score),[20],-0.42
same,glycan array binding signal (z-score),GlcNAc(b1-3)GalNAc,-0.326
same,glycan array binding signal (z-score),GlcNAc(b1-3)Man,-0.389
same,glycan array binding signal (z-score),[21],-0.185
same,glycan array binding signal (z-score),[22],-0.252
same,glycan array binding signal (z-score),[23],-0.311
same,glycan array binding signal (z-score),[24],-0.461
same,glycan array binding signal (z-score),GlcNAc(b1-4)GlcNAc,-0.378
same,glycan array binding signal (z-score),[25],-0.411
same,glycan array binding signal (z-score),[26],-0.431
same,glycan array binding signal (z-score),[27],-0.409
same,glycan array binding signal (z-score),[28],0.217
same,glycan array binding signal (z-score),[29],-0.323
same,glycan array binding signal (z-score),GlcNAc(b1-6)GalNAc,-0.314
same,glycan array binding signal (z-score),[30],-0.337
same,glycan array binding signal (z-score),Kdn(a2-3)Gal(b1-3)GalNAc,-0.106
same,glycan array binding signal (z-score),Kdn(a2-3)Gal(b1-3)GlcNAc,-0.225
